# Measurements taken from PubChem BioAssay AID588342 (National Center for Advancing Translational Sciences (NCATS), 2011).
# The whole screen tested about 360,000 compounds, of which about 25,000 (6.9%) were called active. The inconclusive results got no clear call from the source; some entries with a clear call stand among them for comparison. Calls follow the shape of the dose curve; as a rule, active = well fitted inhibition curve with a large enough effect; inconclusive = small, poorly fitted or top-dose-only effect; inactive = flat fitted curve, though single readings scatter. Potencies beside an inconclusive call are fits to weak or partial responses and may not hold up.
# Target: Luciferin 4-monooxygenase (Photinus pyralis) (UniProt P08659)
# Chain of UniProt P08659 (P08659 whole entry, looked up): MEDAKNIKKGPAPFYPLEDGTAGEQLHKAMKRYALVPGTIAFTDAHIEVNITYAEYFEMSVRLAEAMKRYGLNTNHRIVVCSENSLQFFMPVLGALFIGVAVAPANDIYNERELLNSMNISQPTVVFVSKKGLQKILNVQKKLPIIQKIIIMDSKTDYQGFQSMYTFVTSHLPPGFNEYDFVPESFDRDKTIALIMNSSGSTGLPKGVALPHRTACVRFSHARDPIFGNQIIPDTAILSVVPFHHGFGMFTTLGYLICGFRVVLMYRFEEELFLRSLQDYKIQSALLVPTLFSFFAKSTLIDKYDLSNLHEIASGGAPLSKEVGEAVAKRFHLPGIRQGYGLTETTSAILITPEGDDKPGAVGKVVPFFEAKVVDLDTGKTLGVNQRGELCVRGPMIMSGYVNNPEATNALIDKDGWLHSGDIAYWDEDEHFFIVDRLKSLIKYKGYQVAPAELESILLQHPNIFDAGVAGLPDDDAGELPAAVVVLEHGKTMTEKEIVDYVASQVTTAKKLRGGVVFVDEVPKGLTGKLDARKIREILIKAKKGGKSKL
# Experiment: qHTS profiling assay for firefly luciferase inhibitor/activator using purifed enzyme and Km concentrations of substrates (counterscreen for miR-21 project); also: nearly all actives have a fitted effect of over 55% in size
# Settings: purified FLuc, luminescence inhibition; series mostly up to 57.5 µM
# In short: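 Purified P. pyralis luciferase, 10 nM final, with Km-level 10 uM D-luciferin and 10 uM ATP in 50 mM Tris acetate pH 7.5, 10 mM Mg acetate, 0.01% Tween-20, 0.05% BSA; 6-point qHTS titration about 60 µM downward; luminescence read.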
# Potency is read from the fitted curve at half-maximal effect; tags tell the direction and shape of the fitted curve.
row,Structure (SMILES),Potency
1,Cc1c(NC(=O)Cc2ccc(Cl)cc2)cccc1-c1nc2cccnc2s1,inactive
2,O=c1sc2ccccc2c(N2CCN(c3ccccc3)CC2)c1[N+](=O)[O-],"inconclusive: 16.9 µM [inhibitor, partial curve, poor fit]"
3,CC(=O)N1CCN(Cc2nc3cc(NC(=O)Nc4ccccc4)ccc3n2C)CC1,"inconclusive: 10.7 µM [inhibitor, partial curve, poor fit]"
4,O=C(CSc1nnc(COc2ccccc2Cl)o1)Nc1ccccc1,"inconclusive: 23.9 µM [inhibitor, single point]"
5,CNS(=O)(=O)c1cccc(C(=O)OCC(=O)c2cc(C)n(-c3ccc4c(c3)OCO4)c2C)c1,"inconclusive: 15.1 µM [inhibitor, partial curve]"
6,COc1ccccc1N1CCN(C(=O)CSc2nnc(NC(=O)c3ccco3)s2)CC1,"inconclusive: 33.8 µM [inhibitor, single point]"
7,Cc1c(NC(=O)/C(C#N)=C/c2ccc(-c3ccccc3Cl)o2)c(=O)n(-c2ccccc2)n1C,"inconclusive: 37.9 µM [inhibitor, single point]"
8,CCOC(=O)c1sc2nc(C)nc(NCc3cccnc3)c2c1C,inactive
9,N/C(=N\OC(=O)c1ccc([N+](=O)[O-])cc1)c1ccc(Br)cc1,"inconclusive: 7.57 µM [inhibitor, partial curve, poor fit]"
10,COc1cccc(NC2=C(C#N)C(=O)NC(c3cccc(OC)c3O)S2)c1 (centres undefined),"inconclusive: 33.8 µM [inhibitor, single point]"
11,CN(C)C/C(Cl)=C(\Cl)c1ccccc1,"inconclusive: 37.9 µM [inhibitor, partial curve, poor fit]"
12,c1cc(CSc2nnc(-c3ccc4c(c3)OCO4)o2)ccn1,"inconclusive: 26.9 µM [inhibitor, partial curve, poor fit]"
13,Cc1ccc(NC(=O)Cc2cc(C(=O)O)c3ccccc3n2)c(C)c1,"inconclusive: 8.49 µM [inhibitor, partial curve]"
14,CCCCOc1ccc(C(=O)Nc2cc(-c3cn4cccnc4n3)ccc2OC)cc1,inactive
15,CC(=O)Nc1ccc(C(=O)NNC(=O)c2ccc(Cl)cc2)cc1,inactive
16,Cc1ccccc1N=Cc1cccc(O)c1O,"inconclusive: 19 µM [inhibitor, partial curve]"
17,Cc1c(Br)c(O)c(Br)c2sc(=O)oc12,inactive
18,Cn1c(NCc2c(O)ccc3ccccc23)nc2ccccc21,"inconclusive: 26.9 µM [inhibitor, single point]"
19,COc1ccc(-c2nc3ccccc3o2)cc1NC(=O)c1cccnc1,active: 10.7 µM
20,COc1ccc2c(Cl)c(C(N)=O)sc2c1,active: 15.1 µM
21,Cc1cc(N2C(=O)C(O)=C(C(=O)c3cc4ccccc4o3)C2c2cccs2)no1 (centres undefined),"inconclusive: 26.9 µM [inhibitor, partial curve, poor fit]"
22,COCC(C)n1c(C)cc(C(=O)CSc2nnc(N)s2)c1C (centres undefined),active: 8.49 µM

row,Structure (SMILES),Potency
1,Cc1nc(Nc2ccccc2)sc1C,"inconclusive: 37.9 µM [inhibitor, single point]"
2,Cc1[nH]c(=O)c(C(=O)/C=C/c2ccccc2F)c2c1CCCC2,inactive
3,COc1ccc(S(=O)(=O)/N=C2\C=C(NS(=O)(=O)c3ccccc3)C(=O)c3ccccc32)cc1,active: 15.1 µM
4,CCOc1cccc2sc(NC(=O)c3ccc(S(=O)(=O)N4CCCCC4C)cc3)nc12 (centres undefined),"inconclusive: 4.26 µM [inhibitor, partial curve, poor fit]"
5,Cn1cccc1-c1nc2ccccc2[nH]1,active: 16.9 µM
6,Cc1ccc2[nH]cc(C(=O)CN3CCC4(CC3)OCCO4)c2c1,"inconclusive: 37.9 µM [inhibitor, single point]"
7,CC(C)(C)c1cc2cccnc2n1Cc1ccccc1,inactive
8,Clc1ccccc1Cn1c(-c2cccs2)nc2ccccc21,"inconclusive: 26.9 µM [inhibitor, single point]"
9,CNCc1ccccc1OCC(=O)Nc1ccccc1,"inconclusive: 23.9 µM [inhibitor, single point]"
10,Cc1cc(-c2csc(N)n2)c(C)n1CCC(C)C,"inconclusive: 30.1 µM [inhibitor, single point]"
11,CCOc1ccc(C(=O)Nc2ccc3nc(N(CC)CC)cc(C)c3c2)cc1,"inconclusive: 10.7 µM [inhibitor, partial curve, poor fit]"
12,CC(C(=O)O)c1ccc(N2Cc3ccccc3C2=O)cc1 (centres undefined),active: 0.269 µM
13,CCCNC(=O)COC(=O)c1ccccc1OCC(=O)Nc1ccc(Br)cc1,inactive
14,O=c1oc(-c2ccccc2Br)nc2ccccc12,"inconclusive: 30.1 µM [inhibitor, partial curve, poor fit]"
15,COc1cccc(NS(=O)(=O)c2ccc3[nH]cc(C(=O)NC(C)c4ccccc4)c(=O)c3c2)c1 (centres undefined),"inconclusive: 13.5 µM [inhibitor, partial curve]"
16,O=S(=O)(Nc1ccc2c(c1)nc1n2CCN(Cc2ccccc2)C1)c1ccccc1,"inconclusive: 37.9 µM [inhibitor, single point]"
17,Cc1ccccc1C(=O)Nc1ccc2c(c1)nc(CCNC(=O)c1ccco1)n2C,"inconclusive: 23.9 µM [inhibitor, single point]"
18,CCOc1ccc(NC(=S)NC(=O)C2CCCC2)cc1,"inconclusive: 23.9 µM [inhibitor, partial curve, poor fit]"
19,CC(C)(C)NC(=O)c1cccc(NC(=O)c2ccc(NC(=O)c3ccco3)cc2)c1,"inconclusive: 26.9 µM [inhibitor, single point]"
20,S=c1nc2ccccc2c2nc(-c3ccccc3Br)[nH]n12,"inconclusive: 26.9 µM [inhibitor, partial curve, poor fit]"
21,CCCc1cc(=O)[nH]c(SCc2nc(-c3ccc(OCC)cc3)no2)n1,"inconclusive: 3.01 µM [inhibitor, partial curve, poor fit]"
22,CCC(C)Sc1nnc(NC(=O)C2CCN(C(=O)c3ccco3)CC2)s1 (centres undefined),inactive
